{"source": "the supplement of paper PMC8728848", "assay_in_all_cases": "glycan array binding signal (z-score within array); higher = stronger binding", "details_in_all_cases": "glycan notation: IUPAC condensed, linker removed", "key": {"[1]": {"target": "Fuc(a1-2)Gal", "procedure,_shortened": "(§1)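 From the Consortium for Functional Glycomics database, 3228 arrays were curated, keeping only those whose protein sequence was available. Binding is given as a within-array Z-score averaged across arrays sharing a protein sequence and across linkers. Negative Z-scores can be read as non-binding.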"}, "[2]": {"target": "Fuc(a1-2)Gal(b1-3)GalNAc", "procedure,_shortened": "as §1"}, "[3]": {"target": "Fuc(a1-2)Gal(b1-3)GalNAc(a1-3)[Fuc(a1-2)]Gal(b1-4)Glc", "procedure,_shortened": "as §1"}, "[4]": {"target": "Fuc(a1-2)Gal(b1-3)GalNAc(a1-3)[Fuc(a1-2)]Gal(b1-4)GlcNAc", "procedure,_shortened": "as §1"}, "[5]": {"target": "Fuc(a1-2)Gal(b1-3)GalNAc(b1-3)Gal", "procedure,_shortened": "as §1"}, "[6]": {"target": "Fuc(a1-2)Gal(b1-3)GalNAc(b1-3)Gal(a1-4)Gal(b1-4)Glc", "procedure,_shortened": "as §1"}, "[7]": {"target": "Fuc(a1-2)Gal(b1-3)GalNAc(b1-4)[Neu5Ac(a2-3)]Gal(b1-4)Glc", "procedure,_shortened": "as §1"}, "[8]": {"target": "Fuc(a1-2)Gal(b1-3)GlcNAc", "procedure,_shortened": "as §1"}, "[9]": {"target": "Fuc(a1-2)Gal(b1-3)GlcNAc(b1-2)Man(a1-3)[Fuc(a1-2)Gal(b1-3)GlcNAc(b1-2)Man(a1-6)]Man(b1-4)GlcNAc(b1-4)GlcNAc", "procedure,_shortened": "as §1"}, "[10]": {"target": "Fuc(a1-2)Gal(b1-3)GlcNAc(b1-2)Man(a1-3)[Fuc(a1-2)Gal(b1-3)GlcNAc(b1-2)Man(a1-6)]Man(b1-4)GlcNAc(b1-4)[Fuc(a1-6)]GlcNAc", "procedure,_shortened": "as §1"}, "[11]": {"target": "Fuc(a1-2)Gal(b1-3)GlcNAc(b1-3)Gal(b1-4)Glc", "procedure,_shortened": "as §1"}, "[12]": {"target": "Fuc(a1-2)Gal(b1-3)GlcNAc(b1-3)GalNAc", "procedure,_shortened": "as §1"}, "[13]": {"target": "Fuc(a1-2)Gal(b1-3)GlcNAc(b1-3)[Fuc(a1-2)Gal(b1-3)GlcNAc(b1-6)]GalNAc", "procedure,_shortened": "as §1"}, "[14]": {"target": "Fuc(a1-2)Gal(b1-3)GlcNAc(b1-3)[Gal(b1-4)GlcNAc(b1-6)]Gal(b1-4)Glc", "procedure,_shortened": "as §1"}, "[15]": {"target": "Fuc(a1-2)Gal(b1-3)GlcNAc(b1-3)[Neu5Ac(a2-6)Gal(b1-4)GlcNAc(b1-6)]Gal(b1-4)Glc", "procedure,_shortened": "as §1"}, "[16]": {"target": "Fuc(a1-2)Gal(b1-3)GlcNAc6S", "procedure,_shortened": "as §1"}, "[17]": {"target": "Fuc(a1-2)Gal(b1-3)[Fuc(a1-4)]GlcNAc", "procedure,_shortened": "as §1"}, "[18]": {"target": "Fuc(a1-2)Gal(b1-3)[Fuc(a1-4)]GlcNAc(b1-2)Man(a1-3)[Fuc(a1-2)Gal(b1-3)[Fuc(a1-4)]GlcNAc(b1-2)Man(a1-3)]Man(b1-4)GlcNAc(b1-4)GlcNAc", "procedure,_shortened": "as §1"}, "[19]": {"target": "Fuc(a1-2)Gal(b1-3)[Fuc(a1-4)]GlcNAc(b1-2)Man(a1-3)[Fuc(a1-2)Gal(b1-3)[Fuc(a1-4)]GlcNAc(b1-2)Man(a1-6)]Man(b1-4)GlcNAc(b1-4)[Fuc(a1-6)]GlcNAc(b1-4)[Fuc(a1-6)]GlcNAc", "procedure,_shortened": "as §1"}, "[20]": {"target": "Fuc(a1-2)Gal(b1-3)[Fuc(a1-4)]GlcNAc(b1-3)[Fuc(a1-3)[Gal(b1-4)]GlcNAc(b1-6)]Gal(b1-4)Glc", "procedure,_shortened": "as §1"}, "[21]": {"target": "Fuc(a1-2)Gal(b1-3)[Fuc(a1-4)]GlcNAc(b1-3)[Gal(b1-4)GlcNAc(b1-6)]Gal(b1-4)Glc", "procedure,_shortened": "as §1"}, "[22]": {"target": "Fuc(a1-2)Gal(b1-4)Glc", "procedure,_shortened": "as §1"}, "[23]": {"target": "Fuc(a1-2)Gal(b1-4)Glc6S", "procedure,_shortened": "as §1"}, "[24]": {"target": "Fuc(a1-2)Gal(b1-4)GlcNAc", "procedure,_shortened": "as §1"}, "[25]": {"target": "Fuc(a1-2)Gal(b1-4)GlcNAc(b1-2)Man", "procedure,_shortened": "as §1"}, "[26]": {"target": "Fuc(a1-2)Gal(b1-4)GlcNAc(b1-2)Man(a1-3)[Fuc(a1-2)Gal(b1-4)GlcNAc(b1-2)Man(a1-6)]Man(b1-4)GlcNAc(b1-4)GlcNAc", "procedure,_shortened": "as §1"}, "[27]": {"target": "Fuc(a1-2)Gal(b1-4)GlcNAc(b1-2)Man(a1-3)[Fuc(a1-2)Gal(b1-4)GlcNAc(b1-2)Man(a1-6)]Man(b1-4)GlcNAc(b1-4)[Fuc(a1-6)]GlcNAc", "procedure,_shortened": "as §1"}, "[28]": {"target": "Fuc(a1-2)Gal(b1-4)GlcNAc(b1-2)[Fuc(a1-2)Gal(b1-4)GlcNAc(b1-4)]Man(a1-3)[Fuc(a1-2)Gal(b1-4)GlcNAc(b1-2)Man(a1-6)]Man(b1-4)GlcNAc(b1-4)GlcNAc", "procedure,_shortened": "as §1"}, "[29]": {"target": "Fuc(a1-2)Gal(b1-4)GlcNAc(b1-3)Gal(b1-4)GlcNAc", "procedure,_shortened": "as §1"}, "[30]": {"target": "Fuc(a1-2)Gal(b1-4)GlcNAc(b1-3)Gal(b1-4)GlcNAc(b1-2)Man(a1-3)[Fuc(a1-2)Gal(b1-4)GlcNAc(b1-3)Gal(b1-4)GlcNAc(b1-2)Man(a1-6)]Man(b1-4)GlcNAc(b1-4)GlcNAc", "procedure,_shortened": "as §1"}, "[31]": {"target": "Fuc(a1-2)Gal(b1-4)GlcNAc(b1-3)Gal(b1-4)GlcNAc(b1-3)Gal(b1-4)GlcNAc", "procedure,_shortened": "as §1"}, "[32]": {"target": "Fuc(a1-2)Gal(b1-4)GlcNAc(b1-3)GalNAc", "procedure,_shortened": "as §1"}, "[33]": {"target": "Fuc(a1-2)Gal(b1-4)GlcNAc(b1-3)[Fuc(a1-2)Gal(b1-4)GlcNAc(b1-6)]GalNAc", "procedure,_shortened": "as §1"}, "[34]": {"target": "Fuc(a1-2)Gal(b1-4)GlcNAc(b1-3)[Fuc(a1-3)[Gal(b1-4)]GlcNAc(b1-6)]Gal(b1-4)Glc", "procedure,_shortened": "as §1"}, "[35]": {"target": "Fuc(a1-2)Gal(b1-4)GlcNAc(b1-6)GalNAc", "procedure,_shortened": "as §1"}, "[36]": {"target": "Fuc(a1-2)Gal(b1-4)GlcNAc6S", "procedure,_shortened": "as §1"}, "[37]": {"target": "Fuc(a1-2)Gal(b1-4)[Fuc(a1-3)]GlcNAc", "procedure,_shortened": "as §1"}, "[38]": {"target": "Fuc(a1-2)Gal(b1-4)[Fuc(a1-3)]GlcNAc(b1-2)Man(a1-3)[Fuc(a1-2)Gal(b1-4)[Fuc(a1-3)]GlcNAc(b1-2)Man(a1-6)]Man(b1-4)GlcNAc(b1-4)[Fuc(a1-6)]GlcNAc", "procedure,_shortened": "as §1"}, "[39]": {"target": "Fuc(a1-2)Gal(b1-4)[Fuc(a1-3)]GlcNAc(b1-2)[Fuc(a1-2)Gal(b1-4)[Fuc(a1-3)]GlcNAc(b1-4)]Man(a1-3)[Fuc(a1-2)Gal(b1-4)[Fuc(a1-3)]GlcNAc(b1-2)Man(a1-6)]Man(b1-4)GlcNAc(b1-4)GlcNAc", "procedure,_shortened": "as §1"}, "[40]": {"target": "Fuc(a1-2)Gal(b1-4)[Fuc(a1-3)]GlcNAc(b1-3)Gal(b1-4)[Fuc(a1-3)]GlcNAc", "procedure,_shortened": "as §1"}, "[41]": {"target": "Fuc(a1-2)Gal(b1-4)[Fuc(a1-3)]GlcNAc(b1-3)Gal(b1-4)[Fuc(a1-3)]GlcNAc(b1-3)Gal(b1-4)[Fuc(a1-3)]GlcNAc", "procedure,_shortened": "as §1"}, "[42]": {"target": "Fuc(a1-2)Gal(b1-4)[Fuc(a1-3)]GlcNAc(b1-3)GalNAc", "procedure,_shortened": "as §1"}, "[43]": {"target": "Fuc(a1-2)Gal(b1-4)[Fuc(a1-3)]GlcNAc(b1-3)[Neu5Ac(a2-6)Gal(b1-4)GlcNAc(b1-6)]Gal(b1-4)Glc", "procedure,_shortened": "as §1"}, "[44]": {"target": "Fuc(a1-2)Gal3S(b1-4)GlcNAc", "procedure,_shortened": "as §1"}, "[45]": {"target": "Fuc(a1-2)Gal6S(b1-3)GlcNAc", "procedure,_shortened": "as §1"}}, "note": "The list shows a part of the results."}
{"binder": "FimA-N3 (Actinomyces oris) (protein) MHHHHHHSSGVDLGTENLYFQSNAGLQGAQFQLYKAKNAYANTCSNEKEGAPIAINGQTTLTTDAQGAIDIKGLFISDSIDGADRDNQVNAMERCYVLVETKAPAGYVLPAGNGAATPVKVKAGEETTDN", "values": [{"measurement": "glycan array binding signal (z-score)", "setting": "[1]", "value": -0.054}, {"measurement": "glycan array binding signal (z-score)", "setting": "[2]", "value": -0.501}, {"measurement": "glycan array binding signal (z-score)", "setting": "[3]", "value": -0.046}, {"measurement": "glycan array binding signal (z-score)", "setting": "[4]", "value": -0.565}, {"measurement": "glycan array binding signal (z-score)", "setting": "[5]", "value": 5.62}, {"measurement": "glycan array binding signal (z-score)", "setting": "[6]", "value": -0.436}, {"measurement": "glycan array binding signal (z-score)", "setting": "[7]", "value": -0.174}, {"measurement": "glycan array binding signal (z-score)", "setting": "[8]", "value": -0.447}, {"measurement": "glycan array binding signal (z-score)", "setting": "[9]", "value": 0.279}, {"measurement": "glycan array binding signal (z-score)", "setting": "[10]", "value": -0.196}, {"measurement": "glycan array binding signal (z-score)", "setting": "[11]", "value": 0.208}, {"measurement": "glycan array binding signal (z-score)", "setting": "[12]", "value": -0.296}, {"measurement": "glycan array binding signal (z-score)", "setting": "[13]", "value": 0.427}, {"measurement": "glycan array binding signal (z-score)", "setting": "[14]", "value": -0.19}, {"measurement": "glycan array binding signal (z-score)", "setting": "[15]", "value": -0.408}, {"measurement": "glycan array binding signal (z-score)", "setting": "[16]", "value": 0.218}, {"measurement": "glycan array binding signal (z-score)", "setting": "[17]", "value": -0.303}, {"measurement": "glycan array binding signal (z-score)", "setting": "[18]", "value": -0.423}, {"measurement": "glycan array binding signal (z-score)", "setting": "[19]", "value": -0.528}, {"measurement": "glycan array binding signal (z-score)", "setting": "[20]", "value": -0.6}, {"measurement": "glycan array binding signal (z-score)", "setting": "[21]", "value": -0.382}, {"measurement": "glycan array binding signal (z-score)", "setting": "[22]", "value": -0.14}, {"measurement": "glycan array binding signal (z-score)", "setting": "[23]", "value": -0.423}, {"measurement": "glycan array binding signal (z-score)", "setting": "[24]", "value": -0.219}, {"measurement": "glycan array binding signal (z-score)", "setting": "[25]", "value": -0.23}, {"measurement": "glycan array binding signal (z-score)", "setting": "[26]", "value": -0.425}, {"measurement": "glycan array binding signal (z-score)", "setting": "[27]", "value": -0.309}, {"measurement": "glycan array binding signal (z-score)", "setting": "[28]", "value": -0.266}, {"measurement": "glycan array binding signal (z-score)", "setting": "[29]", "value": -0.556}, {"measurement": "glycan array binding signal (z-score)", "setting": "[30]", "value": 0.137}, {"measurement": "glycan array binding signal (z-score)", "setting": "[31]", "value": -0.516}, {"measurement": "glycan array binding signal (z-score)", "setting": "[32]", "value": -0.148}, {"measurement": "glycan array binding signal (z-score)", "setting": "[33]", "value": -0.491}, {"measurement": "glycan array binding signal (z-score)", "setting": "[34]", "value": -0.114}, {"measurement": "glycan array binding signal (z-score)", "setting": "[35]", "value": 0.198}, {"measurement": "glycan array binding signal (z-score)", "setting": "[36]", "value": -0.496}, {"measurement": "glycan array binding signal (z-score)", "setting": "[37]", "value": -0.292}, {"measurement": "glycan array binding signal (z-score)", "setting": "[38]", "value": 0.027}, {"measurement": "glycan array binding signal (z-score)", "setting": "[39]", "value": -0.135}, {"measurement": "glycan array binding signal (z-score)", "setting": "[40]", "value": -0.115}, {"measurement": "glycan array binding signal (z-score)", "setting": "[41]", "value": -0.108}, {"measurement": "glycan array binding signal (z-score)", "setting": "[42]", "value": -0.639}, {"measurement": "glycan array binding signal (z-score)", "setting": "[43]", "value": -0.472}, {"measurement": "glycan array binding signal (z-score)", "setting": "[44]", "value": -0.216}, {"measurement": "glycan array binding signal (z-score)", "setting": "[45]", "value": 0.001}]}
